In ChEMBL document CHEMBL4888484, “Replenishing the malaria drug discovery pipeline: Screening and hit evaluation of the MMV Hit Generation Library 1 (HGL1) against asexual blood stage Plasmodium falciparum ,using a nano luciferase reporter read-out” (2022):
Among all 150,000 compounds or so, about 540 (0.36%) showed an effect of 50% or more. Some of the results follow.

What follows are compounds tested on Plasmodium falciparum (assay: Primary screen in NF54 nanoGlo assay, in single point, at 2uM, 72h; a lower Z score goes with more inhibition). Conditions: timepoint 72 hour.
Assay type: functional, Erythrocyte

Structure (SMILES) | % Inhibition [%] | Z score
Cc1ccccc1Cn1c(=O)c(C(=O)NCCN2CCOCC2)nn(-c2ccc(C(C)C)cc2)c1=O | -1 | 0.11
Cc1cc(C(=O)Nc2cccc3c2CCCC3)on1 | -19 | 3.49
CC[C@H](C)n1nccc1NC(=O)c1ccc(N2CCOCC2)c(F)c1 | -4 | 0.49
COc1ccc(NC(=O)N2C[C@@H]3CCCN3c3ccccc32)c(OC)c1 | -2 | 0.23
O=C(N[C@H]1C[C@@H](c2cc(=O)[nH]cn2)C1)c1ncc(F)cc1F | -4 | 0.73
O=C(Cc1cnc2ccccc2c1)N1CCC[C@H]1CO | -12 | 1.75
CCn1cc(-c2cc(C(F)(F)F)nc(N3CCC[C@H](C)C3)n2)cn1 | 34 | -3.9
CC1=C(CN2CC(=O)N[C@@H](C)C2)C(C)(C)CCC1 | -14 | 1.86
Cc1oncc1C(=O)N1CCN(C(=O)c2cnn3ccccc23)CC1 | 14 | -1.72
Cc1nc(-c2ccnc(-n3cnnc3)c2)n(C2CCCCC2)n1 | -13 | 1.69
OC1CCCCC1CNc1nc(C(F)(F)F)ns1 (stereo not given) | -7 | 0.92
CN(CCC(C)(C)O)C(=O)c1sccc1Cl | 5 | -0.92
NC(=O)c1cc2c(cc1N1CCCC1)NC(=O)C[C@@H]2c1ccccn1 | 1 | -0.1
Cc1ccc(-n2nnc(-c3nc(C)c(C(=O)NCc4ccccc4)s3)c2C)cc1C | 7 | -0.67
COc1cc(C)c(CN2CCN(C(=O)CO)CC2)c(C)n1 | -4 | 0.63
CC(=O)N1CCN(C(=O)CC2CC3CCC2C3)CC1 (stereo not given) | 38 | -4.34
FC(F)(F)c1ccnc(Oc2ccc3ncccc3c2)n1 | -14 | 1.84
CO[C@@H](CNC(=O)N1CCC(c2nc3ccccc3o2)CC1)c1ccc(F)cc1 | -2 | 0.24
Nc1cc(-c2cccc3ccnn23)nc(N2CCCC2)n1 | -11 | 1.39
CCNC(=NCc1cccc(OC(F)F)c1)NCC | -5 | 0.93
c1ccc([C@@H]2Cn3nc(-c4nc(-c5ccc6c(c5)OCO6)no4)cc3CO2)cc1 | 1 | -0.09
O=c1c2nnsc2ncn1Cc1ccccc1Cl | 5 | -0.86

Structure (SMILES) | % Inhibition [%] | Z score
NC(=O)C1CCCCCC1NC(=O)c1n[nH]c(=O)c2ccccc12 (stereo not given) | 3 | -0.43
Cc1ncsc1CCS(N)(=O)=O | -3 | 0.44
CCc1nc(C#N)cc(N[C@@H]2C(=O)NCC2(C)C)n1 | -1 | 0.1
COCCCN/C(=N\c1ccc(C(=O)O)cc1)N1CCN([C@@H](C)CC(C)C)CC1 | -6 | 0.59
CC(=O)c1c[nH]c(C(=O)Nc2ccc(NC(=O)NCc3ccco3)cc2)c1 | 3 | -0.36
Cc1c(NC(=O)c2cc3n(n2)[C@H](C(F)(F)F)C[C@H](c2ccco2)N3)c(=O)n(-c2ccccc2)n1C | -10 | 1.28
Cc1ccccc1[C@H]1C[C@@H](O)[C@@H](O)[C@@H]1NS(=O)(=O)c1ccc(Cl)cc1 | -8 | 1.23
O=C(NCCS(=O)(=O)N1CCN(c2cccc(Cl)c2)CC1)C1CCCC1 | 18 | -2.24
C[C@H](Oc1ccc(F)c(F)c1)c1nc(C2CCCC2)no1 | -4 | 0.53
COc1cccc(F)c1NC(=O)NCCCc1nc[nH]n1 | -2 | 0.33
Cn1nccc1-c1cncc(CNC(=O)Nc2ccccc2C(F)(F)F)c1 | 25 | -3.31
CCN1CC2(CCN(C(=O)c3cc[nH]c3C)CC2)CC1=O | 1 | -0.12
Cc1[nH]c2ccccc2c1C(=O)COc1nnc(-c2ccccc2)c(-c2ccccc2)n1 | -4 | 0.79
Cc1cc(C)cc(OCc2nnc(C(=O)Nc3cccc(C(=O)NC(C)C)c3)s2)c1 | -14 | 1.43
COc1ccc(C[C@](C)(O)CNS(=O)(=O)c2cccs2)cc1 | -8 | 1.37
CCN(CC)c1cc(CCC(=O)NCC2CC2)ccn1 | 5 | -0.9
CC(C)(CC(=O)Nc1ccc2oc(C3CC3)nc2c1)C(=O)O | 37 | -4.72
O=C(C[n+]1ccc(/C=C/c2ccccc2)cc1)c1ccc2c(c1)OCCO2 | -7 | 1.18
CCN1CCc2nc(-c3ccco3)nc(N(C)Cc3ncc[nH]3)c2CC1 | 6 | -0.97
Cc1ccccc1-c1noc([C@@H]2CCCN2)n1 | -7 | 1.34
NC(=O)c1coc(CNC(=O)c2nc3n(n2)CCCN3)c1 | -7 | 1.05
c1ccc(-c2cc(-c3nccn3C[C@H]3COCCO3)on2)cc1 | -18 | 2.07

Structure (SMILES) | % Inhibition [%] | Z score
CO[C@@H](C(=O)Nc1nccnc1C1CC1)c1ccc(F)cc1 | -6 | 0.76
CC(C)(C)C(=O)Nc1cccc(Cl)c1 | -16 | 2.65
CC(C)c1nnc(COc2ccccc2S(=O)(=O)NCC2CC2)o1 | -3 | 0.35
CC(C)Oc1nc(-c2cccc(F)c2)n(-c2cccc(NC(=O)c3cccs3)c2)n1 | 0 | -0.07
Cc1ccccc1C(=O)N[C@@H](N1CCCCCC1)C(Cl)(Cl)Cl | -2 | 0.18
Cc1nc(CNC2(c3ccc(F)cc3F)CCC2)no1 | -2 | 0.22
CC(=O)Nc1ccc(Oc2ccc(-c3noc(/C=C/c4ccco4)n3)cc2)cc1 | -8 | 0.95
CCC1C(=O)NCCN1C(=O)NCC(OC)c1ccccc1 (stereo not given) | -3 | 0.52
O=C(NC[C@H]1CN(Cc2ccccc2)CC12CCOCC2)N1CCCC1 | 4 | -0.63
COCC1=CCN(C(=O)C2CCN(c3ccc(C)cn3)CC2)CC1 | -13 | 1.99
CC(C)c1nccc(CN2CCc3[nH]cnc3[C@H]2c2c(F)cccc2F)n1 | -2 | 0.32
O=C(Nc1ccc(Cl)cn1)OCC(F)(F)F | 2 | -0.39
Cc1ccsc1-c1nc(-c2ccc3[nH]c(=O)[nH]c3c2)cs1 | -12 | 1.78
COc1ccc(-c2ccc3nc(-c4cc(F)cc(F)c4)oc3c2)c(OC)c1OC | 23 | -2.35
O=C(Cc1noc(Cc2ccc(F)cc2)n1)Nc1cccc(Cl)c1Cl | -12 | 1.1
COc1ccc(CNC(=O)CC2CCN(C(=O)c3cc4ccccc4[nH]3)CC2)c(OC)c1 | -18 | 1.68
Cc1csc(N(CCc2ccccc2)C(=O)[C@H]2CCC(=O)N2)n1 | -15 | 1.68
Cc1cc(C)cc(C(=O)N2CCN(S(=O)(=O)c3c(C)nn(C)c3C)CC2)c1 | -5 | 0.64
C[C@@]1(O)COC2(CN(C(=O)C3(c4ccccc4)CCCC3)C2)C1 | -9 | 1.35
O=C(O)C1(Oc2ccc(F)cc2)CCN(c2ncnc3[nH]ccc23)CC1 | -6 | 1.19
Cc1ccc(-c2noc(CN3CCC4(CC3)NC(=O)NC4=O)n2)cc1 | -9 | 1.23
COc1cccc(C(=O)N2CCC[C@@](F)(c3nc(C4CC4)no3)C2)c1 | -15 | 1.96

Structure (SMILES) | % Inhibition [%] | Z score
CCc1cnc(C)nc1N1CC[C@H](C(C)(C)O)C1 | -9 | 1.15
Cc1nc(CNS(=O)(=O)c2cccc(C(=O)N3CCCC3)c2)sc1C | -2 | 0.32
CCOC[C@H]1CCN(C(=O)Nc2ccncc2F)C1 | -8 | 1.14
Cc1nn(C)cc1[C@H](C)NC(=O)c1cc(-c2ccccc2)on1 | 34 | -4.57
CS(=O)(=O)c1ccc(NC(=O)c2ccnc(OCC3CC3)c2)cc1 | -14 | 2.65
CC[C@H](C)N(Cc1ccccc1Cl)C(=O)c1cc(C)nc(N)n1 | 16 | -1.98
CCN(CC)CC(=O)N1CCN(C(=O)c2cc3ccccn3c2)CC1 | 0 | 0.04
CNC(=O)[C@@H](C)CN(C)Cc1cnc2ccc(Br)cn12 | -6 | 0.72
CN1C(=O)N(c2ccc(-n3cccn3)nc2)C(=O)C12CCCCC2 | -17 | 1.84
CCCn1ncnc1[C@H](C)NC(=O)c1ccn(C)c1C | 15 | -1.99
CC(C)n1ccc(C(=O)N[C@@H](C)c2cn[nH]c2)n1 | 9 | -1.18
CC(C)Cn1c(=O)c(N2CCN(C(=O)c3c[nH]c4ccccc34)CC2)nc2ccncc21 | 1 | -0.05
CC(C)C[C@H](Nc1nccc(C(F)(F)F)n1)c1ncnn1C | -22 | 2.54
O=C(c1c[nH]nn1)N1CCN(CC(=O)N2CCCc3ccccc32)CC1 | -5 | 0.99
COc1cc(CN2CCC[C@H]2c2cccn2C)cc(OC)c1OC | 0 | 0.04
C[C@@H](CNC(=O)Nc1ncc(C2CCCCC2)s1)c1nccs1 | -23 | 2.3
Cc1n[nH]c([C@@H]2CN(Cc3ccoc3C)CCO2)n1 | -6 | 0.66
CCCCn1c(N)c(N(Cc2ccccc2)C(=O)CN2CCn3cccc3[C@@H]2C)c(=O)[nH]c1=O | 1 | -0.12
CCn1cnnc1NC(=O)c1cc(C(F)(F)F)c[nH]c1=O | -11 | 1.48
